Publication PMC12040169 (PLOS Biology, 2025)
Some of the results follow.

Tested on: T1, C. trachomatis L2/434/Bu expressing GFP (CTL2-GFP)
T1 construct: L2/434/Bu GFP intracellular growth in HeLa cells
Set-up: species or system HeLa; C. trachomatis total inclusion area by high-content imaging, normalised to DMSO
Conditions: total inclusion area; 28.5 h, 10 µM; inhibitor
Procedure, shortened: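 High-content imaging followed the bulk GFP/resorufin measurement: fixed, Hoechst-stained cells were scored for GFP inclusions and host nuclei per well. Total inclusion area and count served as growth proxies, nuclei number as the viability proxy. MIC calculation matched the bulk assay.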

| Compound | % of control remaining |
| --- | --- |
| CC(=O)c1cc(C(=O)N2CCC(O)(c3cccc(C)c3)CC2)cs1 [CBK282531] | 65.3738 |
| CC(=O)Cc1c(C(=O)O)c(C)nn1-c1ccccc1 [CBK286779] | 79.7234 |
| N#CCCSCc1ccc(C(=O)O)o1 [CBK265858] | 55.6621 |
| COc1ccc(OC(C)C(=O)Nc2ccccc2-c2ccccc2)cc1 (stereo not shown) [CBK266661] | 95.3464 |
| CCNC(=O)O[C@@H]1CO[C@H]2[C@@H]1OC[C@@H]2NS(=O)(=O)c1ccccc1C#N [CBK289474] | 116.199 |
| Cc1cc(NC(=O)CCCc2ccccc2)nc2c1c(=O)oc1ccccc12 [CBK291204] | 105.344 |
| COC(=O)c1c(NC(=S)NCc2ccc(S(N)(=O)=O)cc2)sc2c1CCC(C)C2 (stereo not shown) [CBK267039] | 104.632 |
| CCc1nc2c(OCc3ccccc3OC)cccn2c1N(C)C(=O)C(C)C [CBK147763] | 75.9845 |
| Cc1ccc(Cl)cc1NC(=O)c1ccc(NCCN2C(=O)C3C4C=CC(C4)C3C2=O)c([N+](=O)[O-])c1 (stereo not shown) [CBK268357] | 101.701 |
| Cc1ccc(C(=O)Nc2nc3ccc(S(=O)(=O)N(C)C)cc3s2)cc1 [CBK287603] | 93.7493 |
| O=C(C1=C(O)C(=O)N(Cc2cccnc2)C1c1cccnc1)c1ccccc1 (stereo not shown) [CBK264522] | 102.29 |
| CNC(=O)C1(Cc2ccccc2-c2cccs2)CCN(C(=O)Cc2ccccc2)CC1 [CBK285746] | 115.371 |
| COc1ccccc1-c1nccnc1N(C)Cc1ccccc1 [CBK036774] | 128.82 |
| O=C(Nc1ccccc1C(=O)O)c1ccccc1O [CBK012116] | 48.6581 |
| COCCN(Cc1ccncc1)C(=O)c1cnc2ccnn2c1C [CBK306965] | 85.099 |
| O=C(Nc1ccccc1C(=O)N1CCN(Cc2ccccc2)CC1)c1ccccn1 [CBK263512] | 84.9329 |
| COC(=O)CN(c1ccc(Cl)cc1Cl)S(C)(=O)=O [CBK267654] | 101.758 |
| COc1cc(C2N(Cc3ccccc3)CCCN2Cc2ccccc2)c([N+](=O)[O-])cc1OC [CBK265224] | 94.6901 |
| O=c1[nH]c(SCc2c(Cl)cccc2Cl)nc2ccnn12 [CBK116145] | 89.1159 |
| CCC(Cn1ccnc1)NS(=O)(=O)c1cc(-n2cccn2)ccc1OC (stereo not shown) [CBK307483] | 83.5632 |
| CC(NC(=O)Cn1c(-c2nonc2N)nc2ccccc21)c1ccccc1 (stereo not shown) [CBK266006] | 121.483 |
| Cc1ccc(S(=O)(=O)Nc2c(C(=O)N3CCN(C)CC3)sc3ncccc23)cc1[N+](=O)[O-] [CBK050025] | 103.654 |
| C=Cn1cc(CN2C3CCC2CC(O)(c2ccc(C)cc2)C3)c(C)n1 (stereo not shown) [CBK283015] | 89.6051 |
| O=C(O)c1cccc2c1C(=O)N(Cc1cccs1)C2 [CBK291246] | 96.083 |
| NC(=O)CN1CC2(CCN(CCc3c[nH]c4ccccc34)CC2)c2ccccc21 [CBK126784] | 93.9426 |
| Cn1c(=O)oc2ccc(C(=O)NCCN3CCCCC3CO)cc21 (stereo not shown) [CBK307594] | 52.6725 |
| COc1ccc2[nH]c3c(c2c1)CCNC31CCN(Cc2cc(F)cc(F)c2)C1 (stereo not shown) [CBK039368] | 63.8858 |

| Compound | % of control remaining |
| --- | --- |
| Cc1ccc(/C(N)=N/OC(=O)CN(C)S(=O)(=O)c2ccc3ccccc3c2)cc1 [CBK267363] | 105.251 |
| Cc1csc2c(NC(C)C)ncnc12 [CBK017059] | 60.0815 |
| Cn1nccc1CCNS(=O)(=O)c1cccc(C(=O)N2CCCCC2)c1 [CBK307086] | 77.2154 |
| COc1cccc(CN2CCCC(c3nc(C)n4ccccc34)C2)c1 (stereo not shown) [CBK282989] | 113.258 |
| CC(C)CCN(Cc1ccc(-c2ccc(S(C)(=O)=O)cc2)nc1)C1CCN(C(=O)OC(C)(C)C)CC1 [CBK165138] | 100.948 |
| COc1ccc(C)cc1S(=O)(=O)N(C)CC(=O)Nc1cccc(SC)c1 [CBK267510] | 93.9824 |
| c1ccc2c(c1)CSCC2Oc1cncc(N2CCNCC2)n1 (stereo not shown) [CBK172356T] | 59.5071 |
| O=C(O)c1cccc(NS(=O)(=O)c2ccc(F)c(C(F)(F)F)c2)c1 [CBK155693] | 101.509 |
| C=Cn1ncc(CN2CCCC(O)(c3ccc(F)cc3)CC2)c1C (stereo not shown) [CBK284837] | 87.3077 |
| Cc1cc(NC(=O)CN2CC=C(c3ccc(C)o3)CC2)no1 [CBK283608] | 90.5342 |
| CCNC(=O)C1(NC(=O)Cc2cn3cccc(C)c3n2)CCCCC1 [CBK304933] | 67.2819 |
| O=C(Nc1cc(F)ccc1N1CCCC1)c1ccc(=O)n(CC(=O)N2CCCCC2)c1 [CBK286083] | 103.165 |
| Cn1ncc2c1CCCN(C(=O)CCc1ccccc1F)C2 [CBK285255] | 90.1166 |
| FC1(F)Oc2ccc(Nc3cncc(-c4cccs4)n3)cc2OC1(F)F [CBK065727] | 125.38 |
| CC(=O)Nc1cccc(-c2cncc(NCCc3c[nH]c4ccccc34)n2)c1 [CBK037820] | 87.8037 |
| Cc1ccccc1-c1noc(CNC(Cn2ccnc2)C(C)C)n1 (stereo not shown) [CBK307560] | 80.037 |
| O=C(c1ccco1)N1CCC[C@H]1[C@H](O)c1nc2ccccc2s1 [CBK284290] | 83.9954 |
| c1ccc2c(c1)OCc1nnc(CCN3CCCCC3)n1-2 [CBK005285] | 78.9131 |
| CCOCCCC(=O)N1CCn2c(nnc2-c2cncc(Br)c2)C1 [CBK304764] | 32.1044 |
| CCCn1c(NC(=O)C(C)Oc2ccc(Cl)cc2Cl)nc2ccccc21 (stereo not shown) [CBK296979] | 41.4134 |
| COCc1cn(C[C@H]2CC3CCN2C[C@@H]3C(=O)NC2CC2)nn1 (stereo partly shown) [CBK288835] | 83.7469 |
| c1ccc(N2CCN(c3nc(-c4ccoc4)cn4ccnc34)CC2)nc1 [CBK066522] | 73.4845 |
| Cn1nc(C(=O)NCC2(c3cccc(F)c3)CCCC2)ccc1=O [CBK281437] | 102.595 |
| COc1nc(NCCc2ccc(OC)c(OC)c2)nc(OC)n1 [CBK266304] | 122.924 |
| CCOc1ccc(Oc2nc(N(C)C)nc(N3CCOCC3)n2)nn1 [CBK269585] | 70.7373 |
| O=C(N[C@H]1CC[C@H](O)CC1)C1(Cc2cc(-c3ccc(F)cc3F)no2)CCOCC1 [CBK286352] | 115.472 |
| O=C(CSCc1nc2ccccc2c(=O)n1-c1ccccc1Cl)Nc1ccccc1 [CBK070895] | 89.9682 |

| Compound | % of control remaining |
| --- | --- |
| Cn1c(CN2CCN(C3CCCCC3)C(=O)C2)nc2ccccc21 [CBK281893] | 96.9705 |
| N=C(N)SCc1csc(-c2ccc(Br)cc2)n1 [CBK017064C] | 23.5729 |
| Nc1ncc(-c2ccco2)nc1-c1ccc(F)c(Cl)c1 [CBK064013] | 161.111 |
| Cc1sc(-c2cccs2)nc1OC(=O)c1cccc(C(F)(F)F)c1 [CBK067748] | 81.5698 |
| O=C1Nc2cc(Cl)ccc2C(=O)N2CCN(C(=O)C3CCCCC3)C[C@H]12 [CBK289586] | 112.161 |
| CC1(CC(=O)Nc2ccccc2)NC(=S)N(c2ccccc2)N1 (stereo not shown) [CBK265534] | 70.212 |
| CCCCn1nccc1NC(=O)NC(C)c1n[nH]c(C)n1 (stereo not shown) [CBK307486] | 77.6118 |
| CCOC(=O)CN1CCN(c2nccnc2Oc2ccc(OC)c(OC)c2)CC1 [CBK083052T] | 70.2061 |
| Cc1cc(C(=O)NCc2ccc(-c3csnn3)cc2)n[nH]1 [CBK149314] | 93.3127 |
| O=C(CC1S/C(=N/N=C/c2ccc(-c3ccc(Br)cc3)o2)NC1=O)Nc1ccccc1 (stereo not shown) [CBK264499] | 108.071 |
| CCc1c(C)sc(NC(=S)Nc2cnccn2)c1C(=O)OC [CBK267088] | 83.4142 |
| Cc1cc(C)c2nn[nH]c2c1CN1CCCC1 [CBK018196] | 83.0434 |
| Cn1c(=O)n(C)c2cc(CNCc3ccc(C(=O)O)cc3)ccc21 [CBK286538] | 81.9581 |
| O=C(CSc1nnc(-c2cccnc2)n1Cc1ccccc1)Nc1ccc(Br)cc1 [CBK267527] | 104.83 |
| Cc1cccnc1NC(=O)c1ccc(NCCc2ccccc2)c([N+](=O)[O-])c1 [CBK269543] | 60.4207 |
| Cn1cc(C(=O)N2CCc3nc(-c4cccc(F)c4)sc3C2)cn1 [CBK281910] | 144.981 |
| COc1ccc(S(=O)(=O)Nc2nccc(-c3ccc(CN4C(=O)CCC4=O)cc3)n2)cc1 [CBK067438] | 92.2031 |
| Cc1cc(OCC(O)CN2CCN(CCO)CC2)cc(C)c1Cl (stereo not shown) [CBK278248C] | 82.5498 |
| CCN(CC)C(=O)c1cnoc1-c1ccc(Br)cc1 [CBK153725] | 84.2444 |
| c1ccc2oc(-c3cncc(N4CCN(CCN5CCCC5)CC4)n3)cc2c1 [CBK066052] | 111.524 |
| CN(C)S(=O)(=O)N(CC(=O)NCC1CCCO1)c1ccccc1 (stereo not shown) [CBK268192] | 85.6969 |
| O=C1c2cccc3cccc(c23)C(=O)N1CC1CCN(CC(O)COCC2COc3ccccc3O2)CC1 (stereo not shown) [CBK074412C] | 90.3445 |
| O=C(O)c1[nH]c2ccccc2c1NS(=O)(=O)c1cc(Cl)sc1Cl [CBK049886] | 85.0042 |
| O=C(Nc1ccc(OC(F)(F)F)cc1)c1cnc(-c2ccc(Cl)cc2)c(-c2ccco2)c1 [CBK037456] | 77.5263 |
| Fc1ccc(NC(=S)NCC2CC2)c(F)c1 [CBK011398] | 52.2408 |
